Source: the supplement of paper PMC11417369
Some of the results follow.

tested on: PfHDP1 homeodomain (GST-tagged); assay: gcPBM binding intensity (ln(normalized median fluorescence intensity)); higher = stronger DNA binding
How it was run: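 Alexa488 anti-GST antibody, scanned at 488 nm, detected GST-tagged P. falciparum DNA-binding domains that had been expressed in E. coli and incubated for 1 h on an Agilent 4 × 180k array. The array carried primer-extended double-stranded 36-bp intergenic genomic probes and negative controls. Binding intensity is the highest Masliner-normalised natural-log median intensity across replicate spots of either orientation of each probe.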

Sequence | gcPBM binding intensity (ln)
TAACGAATTTAAATTTGTACATATATAAATATATAA [XGTACX_site2168] | 6.14
ATCATCTATGTTATTACACACGTTATGTTATTATAA [CACACA_site5502] | 6.73
AAATATTATAGCACCACACACTTATTTTATTTATAT [CACACA_site7133] | 7.04
ACTAAACTTTTATGTACACACATATAACATTAATTT [CACACA_site5276] | 6.98
TACGTAAAAATAGGACGTACTTATTTAGAAACCATA [XGTACX_site2498] | 6.43
TTGGTACCTATAGATACACACATATATACCTATATA [CACACA_site5812] | 6.25
TACAAAATGGGGAACACACACATATATATATATATA [CACACA_site3844] | 9.36
TATATTCTTTATAGGTGTACTTAATAAATAAAAAAT [XGTACX_site5378] | 6.43
TATCTAGTTACTCCTTGTACATAATAAATGATTTTT [XGTACX_site5674] | 6.64
TATATATATGTGTTTACACACAATAATGAATTAAAA [CACACA_site4659] | 6.62
TATGAACATAAATTTGCACACTGGATATAATATATA [CACACA_site2155] | 9.6
AGAAAGAAAGAATACACACACACATATATAAATATC [CACACA_site7716] | 7
ATTATCAATATGAAGGTGCATTTAAATAATATTTAC | 9.62
ATATATTTATATATATGTACTTAAAACATTTCGATG [XGTACX_site328] | 6.25
TTTTTATTTTTTTAGTATACGTACTAGGTTTGTTCT [XGTACX_site645] | 6.54
AATGTAATATAAATATGTACATAATATATATAATTA [XGTACX_site4762] | 6.4
ATATATATATTTTTATGAGGCATAAGTAATATTTTT [TGCATGCA_negctrl_site317] | 7.76
AACAAGAAAAAAAAAAAAAAAAAAAAAAAATATTTT [XGTACX_negctrl_site428] | 5.78
ATTTATATTTATGATACACACACGTATATTCACATA [CACACA_site460] | 6.83
ATTTGTTTATAGGCCATAAAATATTTAATTCATTTG [CACACA_negctrl_site1824] | 6.34
TTTTTCATAAATATATGTACATATATTTTATATAAC [XGTACX_site3402] | 6.76
AGTATTATATTTGTATGTACGTAGTAATATATAAAA [XGTACX_site528] | 6.55
AATGAAATATGGATGGGTACACATTTGATTTTATTA [XGTACX_site6155] | 6.31

Sequence | gcPBM binding intensity (ln)
TATGAAAAAAAAAATACACACACGAGTTGTTATACA [CACACA_site3188] | 6.37
TGTATGTATAGAAACACACATACATATATATAATAT [CACACA_site1405] | 6.41
ATATATATAAACATATGTACACATATATATAATACA [XGTACX_site1848] | 6.76
ATATAAAATATTAGTAGTACCATTAACAGTATTGTT [XGTACX_site5912] | 6.13
ATTAAGATGTATATATGTACATATTACATACATATA [XGTACX_site8657] | 6.47
TAAGAAAATATTTATGTATGCATGTCCTAATATTTC [TGCATGCA_site295] | 6.14
AAAAAAAATTAATTAGTGCAAAATATATACAAAATA [GTGCAC_site9762] | 10.4
TTTTTTTTTTTTTGTTGTACAATACTTAATCATTAT [XGTACX_site3422] | 6.52
ATATATATATAATCAAGTACACAGTAATAAAAAGAA [XGTACX_site1070] | 8.21
ATTGTGTTCATCAGCACACACAACATCATGCAATAA [CACACA_site6960] | 6.52
AATAATAACTGTAGGTGTACGTAAAAAAAAAATTAT [XGTACX_site3133] | 6.98
TCTATACCTATTCTTACACACATATGTATATATATA [CACACA_site563] | 7.31
TTTTTTTTTTTTGAAACATGCATTGTTTTATTCTTA [TGCATGCA_site15] | 6.23
AAAAAAAGATTATACACACACATATATAAACCTACA [CACACA_site710] | 6.77
AATATAGATATAACCACACACATACATCTAATTCTA [CACACA_site1760] | 6.58
AATGTATATATGTAATGTACATATGTAATGTATATA [XGTACX_site6509] | 6.82
TTTTGTTTTGTTTTGTTTTGTTTTGTTTTATTTTAT [GTGCAC_negctrl_site383] | 6.67
TGTTTCTTATTTTTTTCACACACTAAACATTTCAAA [CACACA_site2218] | 7.42
GAAAAGAACAAGAGCATGCACTTAATAAGAATAATA | 8.93
TTTCAAAATGTGTAAAATAAAAATAATATCATTACA [TGCATGCA_negctrl_site521] | 6.42
ATGTGATATAAGTACACACACATATGTATATAGAAT [CACACA_site1823] | 7.3
TTAATTTCATTTTCTACACACCTATCCTTTTTTTTT [CACACA_site772] | 6.38
ATACATATTACATGTTGTACTCCAACAAAAATGCCC [XGTACX_site3201] | 6.67

Sequence | gcPBM binding intensity (ln)
ACATCAAGAATTATTAAGAATACGGATAGATAAAAT [GTGCAC_negctrl_site261] | 6.51
TAAATGCACATATACACACACCCAATTTTAAGTTTT [CACACA_site7428] | 11.1
AATAAAAAAAGTTTTTTTTTTTTTTAAACAATAGAC [CACACA_negctrl_site1061] | 6.2
TATATGTTTTAAAAGTGTACTTTAGTTTCAATTTTT [XGTACX_site4269] | 6.08
AAGAATGTTAATAGTACACACAATTATTATATAAAT [CACACA_site3739] | 6.53
AAAAATTTAATGAAATGTACATATATGTTATTAATA [XGTACX_site6091] | 6.85
ATAATAATAATAAAAAGTACATTTAATTATATAGAA [XGTACX_site7742] | 6.51
AATAACCACCAACACACACACATATATATATATATA [CACACA_site3540] | 9.37
AAGAAAAATATATAAATAAATAAATATATAAATATA [CACACA_negctrl_site836] | 5.94
TATTCTCTCTTATGAACACACATTTTTATTTTCAAA [CACACA_site7554] | 6.67
TAAAAATATATATGATTGCACTTAGGACAATATATA | 7.49
ATTAATATATTATCATGTACACAAAAATAATTTTAT [XGTACX_site7257] | 6.62
GGAAACAAAAAATATATACACACTAATCATAAAAAA [CACACA_site7890] | 6.54
AATTTAAAAATGGACACACACAAAAAATAATACTTA [CACACA_site250] | 6.85
AAAAAAGTTGTATTTGCACACATAAAAAAAAGATAT [CACACA_site3839] | 10.3
TTATAAATAAAAAATACACACATATATATATATATA [CACACA_site207] | 9.4
AAAAATTAACAAAAGGTGCAATTTATTTATTAACGG | 9.05
GTATATTATATTGGGTGTACCATATATAATATAATC [XGTACX_site8579] | 6.35
TAGACAAAATATAATGCACACTATTATTTTTATTTA [CACACA_site5508] | 10.4
TATTTTAATATGTATACATGCATACCTACTCATACA [TGCATGCA_site779] | 6.63
AACTTGTATTTATACACACACACACTGTCTTTTTTT [CACACA_site7009] | 6.97
TAAAATTTTATAAAGGAACACACATTTTTTTTTTTT [CACACA_site8740] | 6.24
CAATCAAATGGACACACACACACCTAAACATAAAAG [CACACA_site5524] | 6.97

Sequence | gcPBM binding intensity (ln)
CTTTTTTTTTTAAATTGTACAAATGTGATGTAATAG [XGTACX_site3219] | 6.66
ATTAAAAAATTACAAGCATGCTTGTTAAAATTTTTT [TGCATGCA_site941] | 5.92
GGAAAAGGTATCCGTTCACACATAAATGGATACCAT [CACACA_site5072] | 5.69
AAAAAAAAAAAAATGTGTACATACATATATTTATAT [XGTACX_site3076] | 6.37
TGGGCACCCATATACACACACAAATACAATGATAAA [CACACA_site4762] | 6.48
TTTTATTTATTTTATTGTACATATATAAAACTATGA [XGTACX_site3476] | 6.6
AATATATTATATATATGTACATATGTGTATACATTT [XGTACX_site937] | 6.94
ATTACATATTGATAAGTGCAAGTGTGAGAAATGTTA | 8.16
TCTATATAGATTTGCACACATAAAAATGCTTATATA [CACACA_site2389] | 10.1
ATATATATGTGTAAAAGTACATATATTTTGAAATAT [XGTACX_site4024] | 6.46
TTTTAATAAAAGCCCATGCACACCTTAGAAAGTTTT [CACACA_site346] | 7.71
TTTTTCATTTTTAAAATAATTATAATATTATACATA [XGTACX_negctrl_site43] | 6.62
TAAATCAGCCATAACACACATACATATATACATAAA [CACACA_site396] | 6.48
TAAATATATATTATATGTACTTATATATATATATAT [XGTACX_site4448] | 8.83
AGCAAATAAATAAATAAATAAATAAATATATATATA [TGCATGCA_negctrl_site40] | 8.79
ATAATTAACAAATACACACACACACGCCCACAAAAA [CACACA_site6389] | 7.17
TATTGGAAAATTAGAAGTACTTTCATATATTAGACT [XGTACX_site4503] | 6.18
TTTTTATTATTCCATAGTACAGAAAAAATGATATAT [XGTACX_site3431] | 6.54
ATTCTTTATTATTCGCCACACACATATATATATATA [CACACA_site9009] | 9.18
TATAATGAGAAGATATAATATATAGGGGGTAATTCT [GTGCAC_negctrl_site228] | 6.52
